According to the supplement of paper PMC4967469:
Lines with a small IC50 respond at low doses; a limit (>, <) means that the fit lies beyond the doses tested. The AUC spans the tested range (256-fold, ending at the top dose) of the same fit; the more sensitive the line, the further below 1. For some of these results: Any top dose called inferred comes from the curve model; the source does not state it. For some of these results: Where an entry number is given, a second screen of the drug exists; the two often differ.

Tests used:
Test in all cases: Viability of human cancer cell lines after 72 h of drug (GDSC screen)
VNLG/124 = compound: CCCC(=O)OCc1ccc(OC(=O)/C=C(C)/C=C/C=C(C)/C=C/C2=C(C)CCCC2(C)C)cc1 [VNLG/124]; conditions: top dose 5.12 µM; top dose inferred
Method: (§1)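 Human cancer cell lines in 384-well plates, medium with 10% serum, drug for 72 h over a 256-fold dose range (nine 2-fold or five 4-fold steps up to the top dose). Adherent lines were fixed and stained with the nucleic acid dye Syto60, suspension lines read with resazurin; signal relative to control wells, capped at 0 and 100%. One two-parameter sigmoid per drug and line, fitted in a mixed model over all curves with the slope shared within a line.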

Elesclomol = compound: CN(NC(=O)CC(=O)NN(C)C(=S)c1ccccc1)C(=S)c1ccccc1 [Elesclomol]; conditions: top dose 0.2 µM; top dose inferred
Method: as §1

Bleomycin = compound: Cc1c(N)nc([C@H](CC(N)=O)NC[C@H](N)C(N)=O)nc1C(=O)N[C@H](C(=O)N[C@H](C)[C@@H](O)[C@H](C)C(=O)N[C@H](C(=O)NCCc1nc(-c2nc(C(=O)NCCC[S+](C)C)cs2)cs1)[C@@H](C)O)[C@@H](OC1OC(CO)C(O)C(O)C1OC1OC(CO)C(O)C(OC(N)=O)C1O)c1cnc[nH]1 [Bleomycin]
Method: as §1

Masitinib = compound: Cc1ccc(NC(=O)c2ccc(CN3CCN(C)CC3)cc2)cc1Nc1nc(-c2cccnc2)cs1 [Masitinib]; conditions: top dose 20 µM
Method: as §1

LAQ824 = compound: O=C(/C=C/c1ccc(CN(CCO)CCc2c[nH]c3ccccc23)cc1)NO [LAQ824]; conditions: top dose 1.024 µM; top dose inferred
Method: as §1

OSI-930 = compound: O=C(Nc1ccc(OC(F)(F)F)cc1)c1sccc1NCc1ccnc2ccccc12 [OSI-930]; conditions: top dose 10.24 µM
Method: as §1

BX-912 = compound: O=C(Nc1cccc(Nc2ncc(Br)c(NCCc3cnc[nH]3)n2)c1)N1CCCC1 [BX-912]; conditions: top dose 10.24 µM; top dose inferred
Method: as §1

NSC-87877 = compound: O=S(=O)(O)c1ccc2cc(N=Nc3cc(S(=O)(=O)O)c4cccnc4c3O)ccc2c1 [NSC-87877]; conditions: top dose 16 µM; top dose inferred
Method: as §1

[1] = top dose 50 µM, screen: GDSC drug entry 1378, top dose inferred
[2] = top dose 64 µM, screen: GDSC drug entry 190

| Cell Line | AUC (VNLG/124) | IC50 (VNLG/124) | AUC (Elesclomol) | IC50 (Elesclomol) | AUC (Bleomycin; [1]) | IC50 (Bleomycin; [1]) | AUC (Bleomycin; [2]) | IC50 (Bleomycin; [2]) | AUC (Masitinib) | IC50 (Masitinib) | AUC (LAQ824) | IC50 (LAQ824) | AUC (OSI-930) | IC50 (OSI-930) | AUC (BX-912) | IC50 (BX-912) | AUC (NSC-87877) | IC50 (NSC-87877) |
| --- | --- | --- | --- | --- | --- | --- | --- | --- | --- | --- | --- | --- | --- | --- | --- | --- | --- | --- |
| NCI-H23 (lung adenocarcinoma, adherent) | 0.987 | > 5.12 µM | 0.488 | 0.0116 µM | 0.108 | < 0.195 µM | 0.466 | 3.24 µM | 0.892 | > 20 µM | 0.635 | 0.15 µM | 0.958 | > 10.2 µM | 0.988 | > 10.2 µM | 0.986 | > 16 µM |
| MIA-PaCa-2 (pancreas, adherent) | 0.978 | > 5.12 µM | 0.365 | 0.0051 µM | 0.157 | 0.239 µM | 0.128 | < 0.25 µM | 0.941 | > 20 µM | 0.425 | 0.039 µM | 0.952 | > 10.2 µM | 0.975 | > 10.2 µM | 0.973 | > 16 µM |
| C3A (liver, adherent) | 0.978 | > 5.12 µM | 0.97 | > 0.2 µM | 0.811 | 27.8 µM | 0.275 | 0.889 µM | 0.983 | > 20 µM | 0.415 | 0.0371 µM | 0.982 | > 10.2 µM | 0.988 | > 10.2 µM | 0.916 | > 16 µM |
| VMRC-RCW (kidney, adherent) | 0.984 | > 5.12 µM | 0.75 | 0.0611 µM |  |  | 0.741 | 18.4 µM | 0.922 | > 20 µM | 0.357 | 0.0265 µM | 0.989 | > 10.2 µM | 0.979 | > 10.2 µM | 0.981 | > 16 µM |
| MDA-MB-361 (breast, adherent) | 0.988 | > 5.12 µM | 0.532 | 0.0152 µM | 0.962 | > 50 µM | 0.111 | < 0.25 µM | 0.948 | > 20 µM | 0.343 | 0.0235 µM | 0.967 | > 10.2 µM | 0.988 | > 10.2 µM | 0.959 | > 16 µM |
| T47D (breast, adherent) | 0.977 | > 5.12 µM | 0.537 |  | 0.866 | > 50 µM | 0.876 | > 64 µM | 0.846 | > 20 µM | 0.394 | 0.028 µM | 0.948 | > 10.2 µM | 0.927 | > 10.2 µM | 0.971 | > 16 µM |
| DU-4475 (breast, suspension) | 0.992 | > 5.12 µM | 0.847 | 0.109 µM | 0.771 | 15.8 µM | 0.326 | 1.45 µM | 0.892 | 15.9 µM | 0.264 | 0.0159 µM | 0.968 | > 10.2 µM | 0.8 | 3.93 µM | 0.978 | > 16 µM |
| ML-2 (acute myeloid leukaemia, suspension) | 0.85 | 3.23 µM | 0.988 | > 0.2 µM | 0.434 | 2.11 µM | 0.139 | 0.357 µM | 0.857 | 13.4 µM | 0.43 | 0.0422 µM | 0.95 | > 10.2 µM | 0.448 | 0.47 µM | 0.981 | > 16 µM |
| T98G (glioma, adherent) | 0.964 | > 5.12 µM | 0.652 | 0.0318 µM | 0.258 | 0.676 µM | 0.799 | 28.1 µM | 0.961 | > 20 µM | 0.784 | 0.399 µM | 0.982 | > 10.2 µM | 0.965 | > 10.2 µM | 0.977 | > 16 µM |
| NCI-H2052 (mesothelioma, adherent) | 0.983 | > 5.12 µM | 0.717 | 0.0622 µM |  |  | 0.368 | 1.55 µM | 0.915 | > 20 µM | 0.549 | 0.0904 µM | 0.983 | > 10.2 µM | 0.944 | > 10.2 µM | 0.971 | > 16 µM |
| LN-18 (glioma, adherent) | 0.993 | > 5.12 µM | 0.58 | 0.0197 µM | 0.135 | 0.316 µM | 0.035 | < 0.25 µM | 0.957 | > 20 µM | 0.64 | 0.143 µM | 0.99 | > 10.2 µM | 0.969 | > 10.2 µM | 0.966 | > 16 µM |
| JSC-1 (B-cell lymphoma, suspension) | 0.954 | > 5.12 µM | 0.604 | 0.024 µM | 0.862 | 41.9 µM | 0.489 | 3.74 µM | 0.664 | 3.54 µM | 0.22 | 0.00983 µM | 0.922 | > 10.2 µM | 0.621 | 1.37 µM | 0.963 | > 16 µM |
| MOLT-4 (lymphoblastic leukaemia, suspension) | 0.943 | > 5.12 µM | 0.604 | 0.0228 µM | 0.401 | 1.77 µM | 0.284 | 1.13 µM | 0.874 | 13.4 µM | 0.287 | 0.0184 µM | 0.963 | > 10.2 µM | 0.429 | 0.425 µM | 0.992 | > 16 µM |
| CMK (acute myeloid leukaemia, suspension) | 0.744 | 1.4 µM | 0.988 | > 0.2 µM | 0.945 | > 50 µM | 0.727 | 15.6 µM | 0.777 | 6.79 µM | 0.142 | 0.00636 µM | 0.923 | > 10.2 µM | 0.834 | 5.28 µM | 0.968 | > 16 µM |
| U-118-MG (glioma, adherent) | 0.981 | > 5.12 µM | 0.949 | > 0.2 µM | 0.584 | 5.51 µM | 0.808 | 39.6 µM | 0.937 | > 20 µM | 0.639 | 0.165 µM | 0.952 | > 10.2 µM | 0.983 | > 10.2 µM | 0.986 | > 16 µM |
